Reference: patent US20240166593A1, “LIPIDS SUITABLE FOR NUCLEIC ACID DELIVERY” (RAMOT AT TEL-AVIV UNIVERSITY LTD., priority 2021, published 2024)

System: SARS-CoV-2 specific T-cell response
Test: RBD-hFc mRNA-LNP vaccination, ELISPOT assay for IFN-γ response in splenocytes
Assay type: in vivo, BALB/c mice and C57BL6 mice
Conditions: C57BL6 mice

CCCCCCN(CCCCCC)CCOC(=O)CCCCCCCCCN(CCO)CCCCCCCCCC(=O)OCCN(CCCCCC)CCCCCC [DSL2-50]
cellular response (SARS-CoV-2 specific T-cell response): robust cellular response
